Experimental data taken from the RNAGym collection of RNA variant scans (doi:10.7554/elife.90254).
Read counts are not given, so values of variants with three or more changes are uncertain.

B1: LINE1-full (parent)
chain: UACGUAGGUGGUUUUCCCCUGAUAGUGCUAAGGGGGCCUGGAAGUUUGGACUGGGCAGAGCUCAACACAGCGUGGCAAAGUGGCUGUGGCUAGACUGCCUCUCUGGAUUCCUCGUCACUCAGCAGGGCAUCUCUGAGAGAAAUGCC

Variants of: B1
Test: self-cleavage, relative activity (ratio to wild type); higher = more cleavage; in vitro, sequencing; the parent is a self-cleaving ribozyme

Variant	self-cleavage
G36U A64G A65U U91C U115C U134A	0
G36U A77G U130C	2.56
G36U A94G A121G G135A A136U	0.12
G36U A136G A141G	1
G36U U52A C128A	0.54
C37A A42G U85C A141G	0.36
C37A U45C A107G G139A	1.06
C37A U47G A64U A124G	0.15
C37A U87C U130C A140G	0.07
C37A U87C U134C	0.12
C37A U102C A107G U112A	0.98
C37A U119C A124G A129G U143A	0.62
C37G A42U A107G	1.21
C37G A43G A141G	0.68
C37G A43G U46G A57G U73C G75A U87C A121U	0
C37G A59G A79U	0.45
C37G A59G U109C U115A A121G	0
C37G A64G C76U U81C	0.18
C37G A65U A78G U96A	0.04
C37G A77G U115A	2.3
C37G A77U G114U	1.03

Variant	self-cleavage
C37G A79G A117C	1.02
C37G C63U U81A	0.44
C37G U39A A50G	0.07
C37G U45G U112C U115C	1.74
C37G U46C U62C A94U C113U	0.1
C37G U46C U104A	1.2
C37G U81C U100C U109C	0.54
C37G U104C A142G	1.05
C37G U119C A121G	1.84
C37U A42U G72A A129G	2.3
C37U A43G A77U	0.72
C37U A43G G114U U115C	1.2
C37U A57U A59U A107G	0.04
C37U A64C U108A	0.36
C37U A65U U108C C123U U143G	0.05
C37U A67G U81A	0.39
C37U A69G G135A A142G	0.12
C37U U39C A79G G137A	1.28
C37U U45G U73A U85C C99U	0.01
C37U U47A A65G	0.01
C37U U62C A69U A77G U91C A92G U108A A141G	0

Variant	self-cleavage
C37U U73C U119C	1.7
C37U U81G A124U U143C	0.82
C37U U85C U102C U112C	0.07
C37U U104A A142G	0.71
C37U U104A U134A	0.87
C38A A43G A65G U130A A140G	0.07
C38A A59C U85C A141G	0.31
C38A U52C G88A U104C	0.09
C38G A107G G137U	2.17
C38G G41A A67G U104A	0.24
C38U A42G U85C	0.16
C38U A43G A138G A142G	1.93
C38U A43G U91C A94U	0.5
C38U A57G A64G U104A	0.09
C38U A69G A141G	0.24
C38U A69G U81A	0.11
C38U G137U U143C	1.02
C38U U45G U102C A140G	0.9
C38U U46C U119C	1.28
C38U U52C C61U C101U	0.01
C38U U62C C116U A140G	0.04

Variant	self-cleavage
C38U U62C U91C	0.09
C38U U73A U87C A92G U102A	0.08
C38U U73C U85C	0.11
C38U U73G A77U U104C U143A	1.56
C38U U85A A94U U102C A129G A136G A140G	0
C38U U100A U112C A142G	1.5
C38U U108C A138G	2.26
U39A A42G A50G G72A	0.14
U39A A42G U52A A136G	1.6
U39A A43G A79G U91C U130C	0.48
U39A A43G G48U A79U	0.81
U39A A43G U85C U134C	0
U39A A43U U100C G126A	1.74
U39A A50G A117C	1.19
U39A A50G U62C A121G A142G	0
U39A A50U A92U A129G	0.66
U39A A50U U132C A140G	1.42
U39A A57G A138G A141G A142U	0.75
U39A A57G G86A U102A U112C	0.04
U39A A64G A124U U143C	0.07
